Read counts are not given, so values of variants with three or more changes are uncertain.
B1: LINE1-mini (parent)
chain: GGCAGAGCUCAACACAGCGUGGCAAAGUGGCUGUGGCUAGACUGCC

Variants of: B1
Assay: self-cleavage, relative activity (ratio to wild type); higher = more cleavage; in vitro, sequencing; the parent is a self-cleaving ribozyme

Variant | self-cleavage
GGCAGAACUCAACACACCGUGGCAAUUUGCCUGUGGCUAGACUGCC [G7A G17C A26U G27U G30C] | 0.1
GGCAGACCUCGACACAGCGUGGCAAACUGGCUGUGGCUAGACUGCC [G7C A11G G27C] | 0.01
GGCAGAACUCAACACAGCGUGGCAAAGUGGCUGUGGCUACACUACC [G7A G40C G44A] | 0.2
GGCAGAACUCAACACAGCUUGGCAAAGUGGCGGUGGCUAGACUGCC [G7A G19U U32G] | 0.08
GGCAGAACGCAACACAGCGUGGCACAGUGGCUGUGGCUAGACUGCC [G7A U9G A25C] | 0.05
GGCAGACGUCAACCCAGCGUGGCAAAGUGGCUGUUGCUAGACUGCC [G7C C8G A14C G35U] | 0.3
GGCAGACCUCAACACAGCGUGGCAAUGUGGCUGUGGAUAGACUGCC [G7C A26U C37A] | 0.07
GGCAGAACUCAACACAGCGUGGCAAAGUGGCGGUGGCUAGACUACC [G7A U32G G44A] | 0.33
GGCAGAACUCAACACAGCGUGCCAAAGUGGCUGUGGCUAGACUCCC [G7A G22C G44C] | 0.09
GGCAGAACGCAACAAAGCGUGGAAAAGGUGCUGUGGCUAGACUGCC [G7A U9G C15A C23A U28G G29U] | 0.02
GGCAGAACUCAACACAGCGUGGCAAAGUGGCUGUAGCUAUACUACC [G7A G35A G40U G44A] | 0.23
GGCAGACCUCAACACAGCGUGGCCAAGUGGCUGUGUCUACACUGCC [G7C A24C G36U G40C] | 0.02
GGCAGAACGCAAGACAGCGUGGCAAAGUGACUGUCGAUAGACUGCC [G7A U9G C13G G30A G35C C37A] | 0.01
GGCAGACAUAAACACAGCGCGGUAAAGUGGCUGUGGCUAGACUGCC [G7C C8A C10A U20C C23U] | 0.02
GGCAGAACUCAACACAGUGAGGCAAAGUGACUGUGGAUAGACUGCC [G7A C18U U20A G30A C37A] | 0.06
GGCAGACCUCAACACCGCGUGGCAACGUGGCUGUGGCUAGACUGCC [G7C A16C A26C] | 0.02
GGCAGACCUCAACACAGCGUGGCACAGUGGCUGUGGCGAGACUGCU [G7C A25C U38G C46U] | 0.01
GGCAGAACUCAACACAGAGUGGCUAAGGGGCUCUGGCUCGACUGCC [G7A C18A A24U U28G G33C A39C] | 0.01
GGCAGACGUGAACACAGAGUGGCAAAGUGGCUGUGGCUAGACUGCC [G7C C8G C10G C18A] | 0.01

Variant | self-cleavage
GGCAGAACUCAACACAGAUUGGCAAAGUGGCUGUGGCAAGACUGCC [G7A C18A G19U U38A] | 0.13
GGCAGAACGCAACACAGCGUGACAAAUUGGCUGUGGCUAGACUGCC [G7A U9G G22A G27U] | 0.21
GGCAGAACUCAACACAGCGUGGCAAAGUGGAUGUGGCAAGGCUGCC [G7A C31A U38A A41G] | 0.08
GGCAGAACUCAACACAGCGUUGCAAAGUGCCUGUGGCUAGACUGCC [G7A G21U G30C] | 0.15
GGCAGAACUCAACACAGCGUGGGAAAGUGGCGGUGGCUAGACUGCC [G7A C23G U32G] | 0.03
GGCAGACCUCAACACUGCGUGGCAAAGUUGCUGUGGCACGCCUGCC [G7C A16U G29U U38A A39C A41C] | 0
GGCAGAACUCAACACAGCUUGGCAAAGUGGCUGUGGCUAUACUGCG [G7A G19U G40U C46G] | 0.34
GGCAGACCUCCACACAACGUGGCAAAGUGACUGGGGCUAGACUGAC [G7C A11C G17A G30A U34G C45A] | 0.02
GGCAGAACUCAACACAGCGUGAUAAAGUGGCUGUGGCUAGACUGCC [G7A G22A C23U] | 0.01
GGCAGACCUCAACUCAGCGUGGCAAAAUGGCUGUGGCUAGAAUGCC [G7C A14U G27A C42A] | 0.04
GGCAGAACUCAACACAGCGUGGCAAAUUGGUUCUGGCUAGACUGCC [G7A G27U C31U G33C] | 0.18
GGCAGACCUCAACUCAGCGUGGUAAAGUGGUUGUGGCUAGACUGCC [G7C A14U C23U C31U] | 0.08
GGCAGACCUCUACACCGCGUGGCAAGGUGGCUGUGGCUAGACUGCC [G7C A11U A16C A26G] | 0.02
GGCAGAACUCAACACAGCGUGGCAAAGUGGUUGUGGCUAGACAUCC [G7A C31U U43A G44U] | 0.03
GGCAGAACUCAACACAGCGUGGCAAAGUCGCUGUGGCCAGACUGCC [G7A G29C U38C] | 0.04
GGCAGAACACAACACAGCGUGGCAAACUGGCUGUGGCCACACUGCC [G7A U9A G27C U38C G40C] | 0.07
GGCAGAACUCAACACAGCGUGGCAAAGUGGCUCUGGCUAGACCGCC [G7A G33C U43C] | 0.13
GGCAGAACUCAACACAGCGUGGCAAAGUGGCUGUGGCGAGCCUGCC [G7A U38G A41C] | 0
GGCAGAACUCAACACAGCGGGGCAAAGUGGCUGAGGCUAGAAUGCC [G7A U20G U34A C42A] | 0.16

Variant | self-cleavage
GGCAGAACUCAACACAGCGUGUCAAAGGGGCUGUGGGUACACUGCC [G7A G22U U28G C37G G40C] | 0.03
GGCAGAACUCAACACACCGUGGCAAAGAGGUUGUGGCUAGACUACC [G7A G17C U28A C31U G44A] | 0.05
GGCAGACCUCAUCAUAGCGUGGAAAAGUGGCUGUGGCUAGACUGCC [G7C A12U C15U C23A] | 0.07
GGCAGACCUCAACACAGCGUGGCCAAGUGGCUGUGGCUUGACUGCC [G7C A24C A39U] | 0.02
GGCAGACCUCCACACAGCGUGGCAACGUGGCUGUGGCUAGACUGCC [G7C A11C A26C] | 0.02
GGCAGACCUCAACACAGCGUGGCAAGGUGGCUGUGGCUGGACUGCC [G7C A26G A39G] | 0.06
GGCAGACCUCAUCACAGCGUGGUAAAGUGGCUGUGGCUAGACCGCC [G7C A12U C23U U43C] | 0.05
GGCAGACCUCACAACAGCGUGGCAAAGUGGUUGUGGCUAGACUGCC [G7C A12C C13A C31U] | 0.02
GGCAGAACUCAACACAGCCUGGCAAAGUGGCUGUUGCUAGACUGCC [G7A G19C G35U] | 0.06
GGCAGAACUCAACACAGUGUGGCAAAUUGGCUGUGGCUAGACUGCC [G7A C18U G27U] | 0.09
GGCAGACAUCAACACAGCGUGGCAAAGUGGCUGUGGCUAGGCUGCC [G7C C8A A41G] | 0.11
GGCAGACCUCAGCACAGCGUGGCAUAGUGGCUGUGGCUAGACUGCC [G7C A12G A25U] | 0.01
GGCAGAACUCAACACAGCGUAGCAAAGUCGCUGUGGCUAGACUGCC [G7A G21A G29C] | 0.05
GGCAGACCUCAACCCCGCGUGGCAAACUGUCUGUGGCUAGACUGCC [G7C A14C A16C G27C G30U] | 0.06
GGCAGACAUCAACACAGCGCGGCAGAUUGGCUGUGGUUAGACUGCC [G7C C8A U20C A25G G27U C37U] | 0.1
GGCAGAACUCAACACAGCGUUGCAACGUGGCUGUGGCUAGACCUCC [G7A G21U A26C U43C G44U] | 0.43
GGCAGAACUCAACACAGCGUGGCAAAGUGGCUGUGGAUAGACUGCG [G7A C37A C46G] | 0.03
GGCAGAACUCAACACAGCGUGGCAAAGUGGCUUUGGCUAGUUUGAC [G7A G33U A41U C42U C45A] | 0.16
